Experimental findings from PubChem BioAssay (NCI) are described below.

The test system of the test is NCI-H322M lung. The test is described as follows: inhibition of tumour cell growth, NCI panel, 48 h.

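Step 1: Grow cells in 96-well plates. Step 2: Expose to compound for 48 hours at 5 concentrations. Step 3: Interpolate endpoints linearly; if unreached, use highest concentration. The concentration for 50% growth inhibition is given as GI50. TGI is the concentration that stops growth completely.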

Regarding `CO[C@H]1O[C@@H]2CO[C@@H](c3ccccc3)O[C@H]2[C@@H]2C/C=C\CCC[C@@]12O`, the TGI was above 100 µM.

In the case of `CCSCN(C)c1nc(N(C)C)nc(N(C)C)n1`, the TGI was above 100 µM.

With `CN1CCN(Cc2ccc(NC(=O)c3cncc(C#Cc4cnc(N)cc4C#N)c3)cc2C(F)(F)F)CC1`, the GI50 was 3.3 µM and the TGI was 13.9 µM. With `c1cc(-c2nnc(SSc3ncnc4nc[nH]c34)o2)ccn1`, the GI50 was 2.82 µM and the TGI was above 100 µM. For `[O-][n+]1c(CN2CCCCC2)nc2cccc3c2c1-c1ccccc1-3`, the TGI was found to be 51.8 µM.

For the compound `C[N+](C)(C)C=Nc1cccc2c1CCCC2`, the TGI was above 100 µM.

Consider `CN(C)c1ccc(/C=C2\N=C(c3ccccc3)N(c3cc(C(F)(F)F)ccc3Cl)C2=O)cc1`, for which the GI50 was above 100 µM and the TGI is above 100 µM. For the compound `C[S+](C)CC1OC(n2cnc3c(N)ncnc32)C(O)C1O` (stereo not drawn), the TGI was above 225 µM.

`CCn1c(-c2cc3c([nH]c4ccccc43)c(-c3cccc(O)c3)n2)n[nH]c1=S`: the GI50 is 8.58 µM and the TGI was determined as 24.3 µM.

The compound `CCOC(=O)NNC(=O)NCc1ccccc1CNC(=O)NNC(=O)OCC` came in with a TGI above 100 µM. Compound `CC(=O)NNc1nc(C)c(C(=O)NNC(=O)C(=O)Nc2cccc(C(C)=O)c2)s1` had a TGI of 38 µM. `CCOC(=O)C(NC(=O)CC)(Nc1ccc(S(=O)(=O)Nc2onc(C)c2C)cc1)C(F)(F)F` (stereo not drawn) displayed a TGI above 100 µM. Turning to `Cc1ccc(S(=O)(=O)N=NC=C2c3ccccc3N(O)c3ccccc32)cc1`, the TGI amounted to 19.9 µM. Still for that read-out and setting: then `CSc1nc(NC2OC(COC(C)=O)C(OC(C)=O)C(OC(C)=O)C2OC(C)=O)c(N=C(C)C(C)=O)c(=O)[nH]1` (stereo not drawn), with above 100 µM. On to `CCCCCCCCOC(=O)c1c(C)[nH]c(/C=C2\N=C(c3ccc[nH]3)C=C2OC)c1C`, for which the GI50 is 0.221 µM and the TGI was 14 µM. Compound `CS[C@]12[C@@H]3C(=O)N(C)C(=O)[C@@H]3[C@](C)(C(=O)N1C)C(=O)N2c1ccccc1` returned a TGI above 100 µM. With `NS(=O)(=O)c1ccc(N=Nc2c(O)[nH]c3ccc(C(=O)NCc4ccncc4)cc23)cc1`, the GI50 was above 25 µM and the TGI was above 25 µM.

For the compound `CCCCCCCC(=O)OCCCC1[C@]2(C)CC[C@@]3(C)C([C@H](C)CCC=C(C)C)CC[C@]3(C)C2CC[C@]12OC2(C)C` (stereo partly drawn), the GI50 is above 100 µM and the TGI is above 100 µM. As for `CNNC(=N\S(=O)(=O)c1cc(C)c(Cl)cc1SCc1ccccc1)/N=C/c1ccc([N+](=O)[O-])s1`, the GI50 was above 58.6 µM and the TGI was above 100 µM. On to `CCCc1c(C(=O)OCC)[nH]c(-c2ccc(-c3[nH]c(C(=O)OCC)c(CCC)c3C(=O)OCC)s2)c1C(=O)OCC`, for which the TGI was above 100 µM. In the case of `CCN(Cc1cc(F)ccc1F)c1ccc(CO)c(Cl)c1`, the GI50 was 6.51 µM and the TGI stood at 21.8 µM. With `N#C/C(=C\c1cccc(O)c1O)C(N)=O`, the TGI is above 100 µM.

`NCCCCC1NC(=O)C(CC(=O)O)NC(=O)CNC(=O)C(CCCN=C(N)N)NC(=O)C(N)CSSCC(C(=O)O)NC(=O)C(CC(=O)O)NC(=O)C2CCCN2C(=O)CNC1=O` (stereo not drawn): the GI50 was above 100 µM and the TGI was above 100 µM. On to `COC(=O)c1c(CC(Cc2ccc3c(c2)CCCC3)C(=O)OC)ccc2c1CCCC2` (stereo not drawn), for which the TGI was above 100 µM.

Turning to `C=C[C@@]1(O)CCCC[C@@H]1CC(Sc1ccccc1)Sc1ccccc1`, the TGI was determined as 32 µM. On to `O=c1cccccc1NCCCCCCCNc1cccccc1=O`, for which the TGI was above 100 µM. Compound `COc1ccc2c(c1)OCCc1cn[nH]c1-2` displayed a TGI above 100 µM. `Oc1ccccc1C1C=C(c2ccccc2)NC(N2CCCCC2)=C1c1nc2ccccc2[nH]1` (stereo not drawn) returned a TGI of 37.4 µM. `CC1(c2cc3c(cc2Br)OCO3)SCCCS1` came in with a TGI above 100 µM. On the same count and under the same terms, then `O=C1Nc2cc([N+](=O)[O-])c(Br)cc2C1=O`, with above 100 µM. As to `COc1cccc(CN(C)c2ccc(CO)c(Cl)c2)c1`, the GI50 is 14.9 µM and the TGI was determined as 86.6 µM. `Cc1nc2ccc(Br)cc2c(=O)n1-c1ccc(NC2OCC(O)C(O)C2O)cc1` (stereo not drawn) came in with a TGI above 100 µM. As to `Cn1cccc1-c1cc(-c2ccccc2)[nH]c(=O)c1C#N`, the GI50 was above 100 µM and the TGI is above 100 µM.

`C=C1CC2CC[C@@]34CC5O[C@@H]6C(O[C@H]7CC[C@H](CC(=O)OC8C(C)C9OC%10C[C@]%11(C[C@@H]%12O[C@]%13(CC(C)[C@@H]%14O[C@H](C(O)CC(O)CO)C[C@@H]%14O%13)CC(C)[C@@H]%12O%11)OC%10CC9O[C@H]8C[C@H]8OC(CC[C@@H]1O2)C[C@@H](C)C8=C)OC7[C@@H]6O3)[C@H]5O4` (stereo partly drawn): the TGI stood at 1.49 µM. On to `Cc1ncc(C(=O)Nc2ccc(CN3CCN(C)CC3)c(C(F)(F)F)c2)cc1C#Cc1ccc(N)nc1`, for which the GI50 was 0.619 µM and the TGI stood at 4.04 µM.

In turn, `O=C(Sc1c(-c2ccccc2)c(=O)n(-c2ccccc2)c(=S)n1-c1ccccc1)c1cccs1` registered a TGI above 100 µM. For `N=C(N)SCCC(=O)CCSC(=N)N`, the TGI was above 100 µM.

On to `Cc1ccc2nc(-c3ccc(OCC(=O)N=Nc4c(O)[nH]c5ccccc45)cc3)[nH]c2c1`, for which the GI50 was 3.67 µM and the TGI was 21.9 µM. For `CC(C)OP(=O)(OC(C)C)C1=NN(c2ccc([N+](=O)[O-])cc2)C(P(=O)(OC(C)C)OC(C)C)=NN1c1ccc([N+](=O)[O-])cc1`, the TGI is above 100 µM. In the case of `NC(=O)c1cc(N(CCO)CCO)c([N+](=O)[O-])cc1[N+](=O)[O-]`, the TGI is above 100 µM.

Turning to `CCOC(=O)c1c(C)nc2c(c1-c1cn(-c3ccccc3)nc1-c1ccccc1)C(=O)c1ccccc1-2`, the TGI is above 100 µM.

In turn, `CCN(CC)CCCNC(=O)c1cc2cc(NC(=O)c3cc4cc([N+](=O)[O-])ccc4[nH]3)ccc2[nH]1` came in with a TGI above 100 µM. On the same count and under the same terms, then `O=c1[nH]c(=O)n(COCCO)c2ccsc12`, with above 100 µM. Same read-out and setting: then `C[Si](C)(C)C(CCCCSc1ccccc1)(Sc1ccccc1)Sc1ccccc1`, with above 100 µM; and `[O-][N+]1(CC[N+]2([O-])CCCCC2)CCCCC1`, with above 100 µM.

`CCOc1ccc(N=NC2C(=O)N(C(=O)CC(=O)Nc3ccccc3)N=C2C)cc1` (stereo not drawn) had a TGI above 100 µM.

The compound `CCc1cccc(C)c1N1C(=O)C(=O)C(c2nc3ccccc3o2)C(=O)C1=O` displayed a TGI above 100 µM.

Compound `CCCCCCCCCC(=O)N[C@@H](c1ccco1)[C@@H](O)C(=O)O[C@H]1C[C@@]2(O)[C@@H](OC(=O)c3ccccc3)[C@@H]3[C@]4(OC(C)=O)CO[C@@H]4C[C@H](O)[C@@]3(C)C(=O)[C@H](OC(C)=O)C(=C1C)C2(C)C` registered a TGI above 50 µM. Take `NC(Cc1c[nH]c2cc([N+](=O)[O-])ccc12)C(=O)O` (stereo not drawn): the TGI was above 100 µM. As for `COc1cc2ncnc(-n3ncc4cc(NC(=O)Nc5ccc(Cl)c(Cl)c5)ccc43)c2cc1OC`, the GI50 is 2.23 µM and the TGI was 5.47 µM. `CCc1cccc(C)c1NC(=O)CCc1nnc2s/c(=C\c3cccc4ccccc34)c(=O)n12` registered a TGI above 100 µM. As to `O=C1C2=C(C(=O)c3cnccc31)C1C=CC2CC1` (stereo not drawn), the GI50 was 21.1 µM and the TGI was 36 µM. As for `C1=C/COCc2cc(ccc2OCCN2CCCC2)Nc2nccc(n2)-c2ccc(o2)COC/1`, the GI50 was 1.82 µM and the TGI was found to be 7.93 µM.

For `Cc1c2c(cc3c1C(=O)C(=O)C1=C3OC[C@@H]1C)C(C)(C)CCC2`, the TGI amounted to 27.7 µM. With `CN(Cc1ccc(C(F)(F)F)cc1)CC(O)C(=O)Nc1ccc(Cl)cc1` (stereo not drawn), the GI50 was 1.59 µM and the TGI amounted to 2.98 µM.

Regarding `CCOC(=O)c1c(C)n(Cc2ccc(Cl)cc2Cl)c2c1cc1oc(=O)c(=O)n3cnc2c13`, the GI50 was 12.8 µM and the TGI came to 26.2 µM. The compound `CNc1ccc2ncccc2c1[N+](=O)[O-]` registered a TGI above 100 µM.

The compound `Cc1cc(Cl)ccc1OCC(=O)Nc1nc(N)nc(N)n1` came in with a TGI above 100 µM. As to `COC(=O)C(CCC(=O)CCl)N1C(=O)c2ccccc2C1=O` (stereo not drawn), the GI50 is 17.8 µM and the TGI amounted to 39.1 µM. `CC(=O)NC(CCCCN)C(=O)NCc1ccccc1` (stereo not drawn) showed a TGI above 100 µM. On the same count and under the same terms, then `CC(C)(C)CC(C)(C)NC(=S)NO`, with above 100 µM. The same measure, in the same setting: then `Cc1nc2n(c1/C=C1/C(=O)Nc3ccccc31)CCS2`, with above 100 µM; and `O=C(C#Cc1ccccc1)N1c2ccccc2CC1c1c[nH]c2ccccc12` (stereo not drawn), with 39.6 µM. The same measure, in the same setting: then `CCc1ccccc1NC(=O)/C=C/c1ccccc1`, with above 100 µM; and `CCC(COC(=O)CC[C@@H](NC(=O)C(C)NC(=O)C(C)OC1C(O)C(CO)OC(OCc2ccccc2)C1NC(C)=O)C(N)=O)NC1c2ccccc2Nc2cccc([N+](=O)[O-])c21` (stereo partly drawn), with above 100 µM.

The compound `CC(C)(C)C(=O)OCC1OC(N=[N+]=[N-])C(OC(=O)C(C)(C)C)C(OC(=O)C(C)(C)C)C1OC(=O)C(C)(C)C` (stereo not drawn) showed a TGI above 100 µM. Same read-out and setting: then `Cc1ccnc2nc(N)ccc12`, with above 100 µM. On to `CCCCCN(CCCCC)CC(O)c1cc(Cl)ccc1OC` (stereo not drawn), for which the GI50 was 9.1 µM and the TGI was 39.3 µM. On the same counts, the results for `CCC(C)Oc1nc2c(c(=O)n(C)c(=O)n2C)n1C` (stereo not drawn) are above 100 µM and above 100 µM. Take `O=c1cc(-c2ccc(O)cc2)oc2cc(O[C@@H]3O[C@H](CO)[C@@H](O)[C@H](O)[C@H]3O)cc(O)c12`: the TGI was above 100 µM. Same read-out and setting: then `C#CCNC(=O)NCCCCC(NC(=O)OCc1ccccc1)C(=O)OCc1ccccc1` (stereo not drawn), with above 100 µM. As for `CCOc1ccc(/C(C=O)=C(\Cl)c2ccc(OC)cc2)cc1`, the TGI is above 100 µM. The same measure, in the same setting: then `Cc1cccc2nc3c(=O)[nH]c(=O)nc-3n(C)c12`, with above 100 µM; and `COC(=O)CCC12CCC(=O)C1[C@@H](C(=O)OC)C[C@H]2C(=O)OC` (stereo partly drawn), with above 100 µM. With `COC(=O)c1cc2c(cc1Cl)SC1=NN(C)S(=O)N1S2(=O)=O` (stereo not drawn), the GI50 was above 100 µM and the TGI is above 100 µM.

As for `COC(=O)CC(C(C(=O)OCc1ccccc1)C(C)O)N1C(=O)OC(c2ccccc2)C1c1ccccc1` (stereo not drawn), the TGI is above 100 µM. For `O=c1c2cc(-c3ccccc3)sc2ncn1Cc1ccc(Cl)c(Cl)c1`, the GI50 was 0.0947 µM and the TGI stood at 31.8 µM. Compound `Nc1nccc(NCC2(CO)CCC2)n1` registered a TGI above 100 µM. The same measure, in the same setting: then `O=C1OC(c2ccccc2)=N/C1=C\c1ccc(Oc2ccc(Cl)c(Cl)c2)cc1`, with above 100 µM.
